Over roughly 13,000 compounds, “IFI” has its median near 4; the highest 2% begin near 17. Some of the results follow.
Test: GSK_TCMDC: Inhibition Frequency Index (IFI). The number of non-kinase HTS assays where a compound showed > 50 % inhibition, expressed as a percentage of the number of such assays in which the compound was tested (-0 is zero)
Assay type: functional

SMILES | IFI [%]
CC(C)N(Cc1ccccc1)C(=O)CN1C(=O)COc2ccc(S(=O)(=O)N3CCCCCC3)cc21 | 2.27
Oc1ccc(CCNc2nc(NCCOc3cccc4ccccc34)nc(N3CCNCC3)n2)cc1 | 16.4
CCSc1nc2sc3c(c2c(=O)n1-c1ccccc1)CCN(C)C3 | 1.43
CC(C)(C)SCC(O)Cn1c2ccc(Br)cc2c2cc(Br)ccc21 (stereo not given) | 2.19
O=C(Nc1ccc2[nH]c(-c3ccccc3)nc2c1)c1cc(-c2ccc3c(c2)OCCO3)n[nH]1 | 5.66
Cc1cc(N(C)C)nc(Nc2ccc(NC(=O)c3c(F)cccc3Cl)cc2)n1 | 1.89
O=C(/C=C/c1ccccc1Cl)Nc1ccc(Br)c(OCCN2CCN(CCN3CCCC3)CC2)c1 | 5.04
COc1c(Br)cc(Br)cc1-c1ccc(CN2C3CCCC2CCC3)[nH]1 | 6.82
NCC(=O)Nc1cccc(Nc2nccc(-c3c(-c4cccc(NC(=O)c5ccccc5)c4)nn4ccccc34)n2)c1 | 12.6
CC(=NNC(S)=NC(C)(C)C)c1ccccn1 | 3.79
Cc1cc2c(cc1C(F)(F)F)N(C(=O)Nc1cccc(C(=O)NC3CCN(Cc4ccccc4)CC3)c1)CC2 | 2.17
N#Cc1ccc(-c2ccc(C(=O)NCCCCN3CCC(c4nc5ccccc5[nH]4)CC3)cc2)cc1 | -0
Cn1nc(C(=O)N2CCC(c3[nH]ncc3Cc3ccccc3)CC2)c2ccccc2c1=O | -0
COc1ccc(Nc2nc(NCc3cccnc3)cc(-c3ccc(OC)cc3)n2)cc1 | 4.69
CCC(C)(C)c1ccc2nc(N)nc(N)c2c1C | 4.44
COc1ccc(-c2cc(Nc3nc(-c4cccc(Cl)c4)nc4ccccc34)ccn2)cc1 | 2.75
O=C(/C=C/c1ccc(Cl)c(Cl)c1)NCCCCCN1CC[C@H](NC(=O)c2ccc3c(c2)OCO3)C1 | 2.08
Cc1ccc2c(c1)nc(N)n2C[C@H](O)c1ccccc1 | 1.32
Cc1cc(N2CCCC2)nc(Nc2ccc(NC(=O)Nc3ccccc3)cc2)n1 | 16.2
Cc1ccc(S(=O)(=O)Nc2ccc(Nc3nccc(Nc4cccc5[nH]ncc45)n3)cc2)cc1 | 11.4

SMILES | IFI [%]
O=C(NCC1CCN(CCN2CCC(c3cn(CCO)c4ccccc34)CC2)CC1)c1ccc(-c2ccc(C(F)(F)F)cc2)cc1 | 10
CCCCNc1ccc(C(=O)NC2CCN(C[C@H](O)c3ccnc4ccc(OC)cc34)CC2)cc1 | 1.47
CC(C)CNCc1ccc(OCc2cccc(COc3ccc(CNCC(C)C)cc3I)c2)c(I)c1 | 8.89
CS(=O)(=O)NCCCNCc1cccc(-c2cccc(-c3nc4cc(C(F)(F)F)ccc4[nH]3)c2)c1 | 0.99
Cc1ccccc1Oc1ccc(Nc2ccnc(Nc3cccc(C(N)=O)c3)n2)cc1C(F)(F)F | 7.19
CC(C)N1CCC(N(Cc2ccc(-c3ccc(C(F)(F)F)cc3)cc2)C(=O)Cn2c(SCc3cccc(F)c3F)cc(=O)c3c2CCC3)CC1 | 9.66
Cc1nc2ccccc2c(O)c1-c1ccc(Cl)cc1 | -0
CN(C)CCNCc1ncsc1-c1ccc2c(Nc3ccc(F)cc3Cl)ccnc2c1 | 1.5
COc1ccc(-c2cnc(N)c(-c3nc4cc(Br)ccc4[nH]3)c2)cc1 | -0
N=c1c2c(n(Cc3cccc(Cl)c3)c3c1CCC3)CCCC2 | 2.11
Cn1cncc1C(=O)Nc1ccc(-c2cccc(-c3nc4cc(F)ccc4[nH]3)c2)cc1 | 4.42
Nc1ccncc1C(=O)NCCCCN1CCN(c2nsc3ccccc23)CC1 | 2.42
COc1cc(NC(=O)/C=C/c2cc(F)cc(F)c2F)cc(OCCN2CCCCC2)c1 | 4.29
c1ccc2c(NCCCCCCCCNc3ccnc4ccccc34)ccnc2c1 | 8.27
CCCCN(Cc1cc(Cl)c(OC)c(OC)c1)c1ccc(C(O)(C(F)(F)F)C(F)(F)F)cc1 | 5.11
COc1ccc(CNc2ccnc3cc(OC)ccc23)cc1 | 0.72
COc1ccc2c(=NN=Cc3cccc(Cl)c3)cc(C)[nH]c2c1 | 2.8
Cc1noc(C)c1-c1cccc(CNCc2ccc(-c3ccc(-c4nc5cc(F)ccc5[nH]4)cc3)cc2)c1 | 8.91
O=C(/C=C/c1ccc(Cl)c(Cl)c1)NC1CCC(CN2CCC(c3nc4ccccc4s3)CC2)CC1 (stereo not given) | 3.57
O=C1C(=Cc2cc(Cc3ccccc3)ccc2O)SC(=S)N1Cc1ccccc1 | 2.31

SMILES | IFI [%]
Cc1onc(-c2c(F)cccc2Cl)c1C(=O)Nc1ccccc1I | 4.11
CCCNCc1ccc(-c2ccc(CN(Cc3ccc4c(c3)OCO4)C(=O)Cc3cccnc3)cc2)nc1 | 4.86
C=CCNC(=O)C(C)c1ccc2cc(OC)ccc2c1 (stereo not given) | -0
CN1N=C2c3ccccc3CCC2C1c1ccc(C#N)cc1 (stereo not given) | 0.67
c1cncc(CNc2ncc(-c3ccsc3)c(-c3nccs3)n2)c1 | 3.33
CCN(CC)CCCCOc1ccc2c(c1)C(=O)c1cc(OCCCCN(CC)CC)ccc1-2 | 2.21
O=C(C=Cc1ccc(Cl)c(Cl)c1)NCCCCCN1CCC(CCNC(=O)/C=C/c2ccccc2)CC1 | 8.27
O=C(Nc1ccc(Cl)cc1)Nc1cccc(-c2cccc(-c3nc4cc(F)ccc4[nH]3)c2)c1 | 7.07
COC(=O)C(C)NCC(=O)c1ccccc1 (stereo not given) | 1.41
CCCNC(=O)c1cncc(-c2ccc(CNC(CC)c3ccccc3)cc2)c1 (stereo not given) | 1.64
O=C(NC1CCCCC1)c1ccc(O)c(-c2cccc(C(F)(F)F)c2)c1 | 2.19
CS(=O)(=O)c1ccc(-c2cnc(N)c(-c3ccc(O)cc3)c2)cc1 | 1.67
O=[N+]([O-])c1ccc(/C=N/Nc2cc(-c3ccccc3)nc3ccccc23)o1 | 7.86
COc1ccc(N(C)Cc2cnc3nc(N)nc(N)c3n2)cc1 | 1.47
COc1cccc(-c2cc(C(F)(F)F)n3ncc(C(=O)Nc4cc(C)ccc4O)c3n2)c1 | 0.9
Cc1cc(NC2CCCC2)nc(Nc2ccccc2)n1 | 10.9
CN1CCc2cc(NC(=O)c3cc4ccccc4s3)cc(-c3ccccc3)c2CC1 | 7.46
CCCNC(=O)C1Cc2cc(OC)c(OC)cc2C2(N1)C(=O)N(Cc1cccc(OC)c1)c1ccccc12 (stereo not given) | -0
COc1ccc(CNc2nccc3ccc(-c4ccc5nccn5c4)cc23)cc1 | 1.33
CC(C)CCCC(C)(C)NC[C@@H](O)[C@H](Cc1ccccc1)NC(=O)c1cc(NC(C)C)cc(N2CCCCS2(=O)=O)c1 | 7.75
